# Reference: PMC4336329 (PLoS ONE, 2015)
# The campaign covered roughly 310,000 compounds. About 2,200 (0.71%) showed an effect of 50% or more. The effect is printed as a negative number. This is one part of the list.
# Target: human ether-à-go-go-related gene (hERG) potassium channel (human, UniProt Q12809)
# Experiment: primary screen, population patch clamp on CHO cells stably expressing hERG
# Chain of human ether-à-go-go-related gene (hERG) potassium channel (Q12809 whole entry, looked up): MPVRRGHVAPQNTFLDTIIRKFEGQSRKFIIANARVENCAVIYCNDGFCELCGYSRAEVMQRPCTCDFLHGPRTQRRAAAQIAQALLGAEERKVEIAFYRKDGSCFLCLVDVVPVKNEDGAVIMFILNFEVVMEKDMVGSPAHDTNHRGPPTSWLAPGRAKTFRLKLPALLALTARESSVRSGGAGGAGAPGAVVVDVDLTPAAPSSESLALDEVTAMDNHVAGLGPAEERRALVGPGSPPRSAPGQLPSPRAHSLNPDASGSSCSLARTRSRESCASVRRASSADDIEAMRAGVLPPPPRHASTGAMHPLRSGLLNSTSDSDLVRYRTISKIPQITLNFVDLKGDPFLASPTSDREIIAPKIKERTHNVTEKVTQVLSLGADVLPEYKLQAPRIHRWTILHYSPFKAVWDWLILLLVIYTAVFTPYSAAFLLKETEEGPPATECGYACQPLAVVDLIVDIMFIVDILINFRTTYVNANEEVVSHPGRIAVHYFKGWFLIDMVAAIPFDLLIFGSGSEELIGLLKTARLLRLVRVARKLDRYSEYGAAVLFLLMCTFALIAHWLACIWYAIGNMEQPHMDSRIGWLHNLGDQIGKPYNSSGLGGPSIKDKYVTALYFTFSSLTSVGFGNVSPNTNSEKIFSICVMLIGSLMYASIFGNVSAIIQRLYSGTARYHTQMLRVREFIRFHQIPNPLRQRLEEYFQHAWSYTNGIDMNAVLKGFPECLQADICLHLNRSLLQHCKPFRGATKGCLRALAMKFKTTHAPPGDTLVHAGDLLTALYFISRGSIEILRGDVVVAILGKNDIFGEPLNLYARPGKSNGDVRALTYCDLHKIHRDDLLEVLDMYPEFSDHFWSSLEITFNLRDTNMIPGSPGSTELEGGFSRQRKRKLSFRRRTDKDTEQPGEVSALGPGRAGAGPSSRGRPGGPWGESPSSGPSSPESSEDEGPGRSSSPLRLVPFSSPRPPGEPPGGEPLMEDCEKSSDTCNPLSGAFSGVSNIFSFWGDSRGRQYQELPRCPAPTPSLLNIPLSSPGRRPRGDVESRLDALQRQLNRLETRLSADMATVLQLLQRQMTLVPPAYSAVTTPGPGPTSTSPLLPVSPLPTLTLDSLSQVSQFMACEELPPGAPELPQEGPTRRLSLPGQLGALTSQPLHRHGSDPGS
row,SMILES,"hERG current change (%, negative = inhibition) at 1uM"
1,O=C1N(c2ccccc2)c2ccccc2C1(O)C(F)(F)F (stereo not drawn),12.5%
2,COC(=O)c1sccc1-n1cccc1C(=O)C(=O)N1CC(C)OC(C)C1 (stereo not drawn),14.3%
3,COc1cc(NS(=O)(=O)c2ccc(NC(=O)C34CC5CC(CC(C5)C3)C4)cc2)ncn1,0.132%
4,CCN(CC)C(=O)c1ccc(CS(=O)(=O)c2ccc(OC)cc2)o1,2%
5,CCCSC1C(C)=C(C)C(=O)N1Cc1ccccc1 (stereo not drawn),14.7%
6,N#C/C(=C\N1CCOCC1)c1ccccc1,6.79%
7,COc1cc(Cl)c(C)cc1NC(=O)CSC,-0.457%
8,O=C(COC(=O)c1ccccc1)NCc1cccs1,11.3%
9,CCN(CC)Cc1cc(CC(C(N)=O)C(N)=O)ccc1OC,5.66%
10,COc1ccc(-c2c3c(nc4sc5c(=O)[nH]c(C)nc5c24)CCC3)cc1,6.71%
11,COc1ccc(C(=O)Nn2c(SCC(=O)NC3CCCCC3)nc3ccccc3c2=O)cc1,-0.2%
12,COc1ccc(C(=O)NCCc2nnc(SCC(=O)Nc3ccccc3C(C)C)n2C)cc1,-2.6%
13,Cc1nc(NC(=O)c2ccc3c(c2)OCCO3)ccc1Br,11.1%
14,COc1ccccc1C(=O)n1nc(-c2cccnc2)nc1N,11.1%
15,S=C(Nc1ccc(Cl)cc1)N1CCCCC1,4.49%
16,O=C(NC(=O)N1CCN(c2cccc(Cl)c2)CC1)c1ccc(Cl)cc1,2.19%
17,CC(C)(C)C(=O)NC(NC(=O)C(C)(C)C)c1ccc([N+](=O)[O-])cc1,14%
18,COc1ccc(C(=O)O/N=C2\C(=O)N(C)c3ccccc32)cc1,-11.6%
19,CN(CC(=O)Nc1ccc(Cl)cc1)C(=O)c1ccc(S(=O)(=O)Nc2ccccc2)cc1,6.47%

row,SMILES,"hERG current change (%, negative = inhibition) at 1uM"
1,O=C(O)C1=C(C(=O)N2CCN(C(=O)c3ccco3)CC2)CCCC1,3.38%
2,CC(c1ccc(Cl)cc1)n1c(-c2ccc3ccccc3n2)n[nH]c1=S (stereo not drawn),10%
3,Cc1onc(-c2c(F)cccc2Cl)c1C(=O)N1CCSCC1,14.2%
4,Cc1nn(C)cc1CN(C)C(=O)c1nn2c(c1Br)NC(c1cccs1)CC2C(F)(F)F (stereo not drawn),3.03%
5,COc1ccccc1NC(=O)NC1CCS(=O)(=O)C1 (stereo not drawn),16.5%
6,COc1ccc(CNC(=O)CN2CCN(C(c3ccccc3)c3ccccc3)CC2)cc1,15.7%
7,COc1ccc(C(=O)NCC(=O)OCC(=O)c2ccc3c(c2)OCCO3)cc1,4.48%
8,O=C(COC(=O)c1cc(=O)[nH]c2ccccc12)NC(=O)NC1CCCCC1,4.42%
9,CCN(CC)C(=O)CCc1nnc(Cc2cccc(C(F)(F)F)c2)o1,11.4%
10,Cc1ccn2c(CNCC3OCCc4ccccc43)c(C(=O)N3CCCCCC3)nc2c1 (stereo not drawn),-18.2%
11,O=C(Cn1nc(Cc2cccnc2)c2ccccc2c1=O)N1CCN(c2ccccn2)CC1,-1.89%
12,O=C(O)c1ccc(NC(=S)N2CCCCC2)cc1,10.2%
13,O=C(CNC(=O)c1ccco1)NCC(=O)OCc1ccc(Cl)cc1,6.67%
14,COc1ccc2c(=O)c3c(=O)n(-c4ccccc4)c(-c4ccc(C)cc4)nc3oc2c1,14.3%
15,CN(CC(=O)Nc1ccc(F)c(F)c1F)C(=O)CCCc1nc2ccccc2c(=O)[nH]1,2.9%
16,O.O=C1NC2(O)C(=O)c3ccccc3C2(O)N1 (stereo not drawn),13.5%
17,Cn1cccc1CC(=O)NNC(=S)Nc1ccc(F)cc1,10.2%
18,O=C1c2ccccc2NC(c2ccccn2)N1c1ccccc1F (stereo not drawn),10.7%
19,Cc1cccc(C)c1N=Cc1c(C(F)(F)F)[nH][nH]c1=O,4.12%

row,SMILES,"hERG current change (%, negative = inhibition) at 1uM"
1,Clc1ccc(N2CC2c2ccncc2)cc1 (stereo not drawn),15%
2,COc1cc(/C=C(/C#N)C(=O)NC(C)c2ccccc2)cc(OC)c1O (stereo not drawn),20.1%
3,COc1[nH]c2ccc(F)cc2c1C(=O)OCC1CCN(CCNS(C)(=O)=O)CC1.NS(=O)(=O)O,9.88%
4,O=C1C(=O)N(c2nccs2)C(c2ccccc2F)/C1=C(\O)c1ccc2c(c1)OCCO2 (stereo not drawn),14%
5,Cc1ccc(COC(=O)c2ccc3ccccc3n2)cc1,9.37%
6,CCCCn1c(N)c(NCCC)c(=O)[nH]c1=O,10.3%
7,CCN(CC)c1ccc(C(=O)NNC(=O)CN2C(=O)NC(C)(c3ccccc3)C2=O)cc1 (stereo not drawn),9.28%
8,CC(=O)O.CN=C(N)NCCC[C@H](N)C(=O)O,19.7%
9,COc1cc(NC(=O)Nc2c(C)n(C)n(-c3ccccc3)c2=O)cc(OC)c1OC,8.67%
10,CCO[C@H]1OC(C(N)=O)=C[C@@H](c2csc3ccccc23)[C@@H]1CCCO,8.25%
11,COc1ccc(/C(C)=N/OCC(=O)N=Nc2c(O)[nH]c3ccccc23)cc1,-0.898%
12,Cc1[nH]c(=O)c(S(=O)(=O)c2ccccc2)c(C)c1Cl,16.6%
13,Brc1ccc(CSc2nnc(-c3ccco3)o2)cc1,6.11%
14,N#C/C(=C\c1ccc(F)cc1)c1nc(-c2ccco2)cs1,11.3%
15,Cc1ccc(Nc2nc(-c3sc(NC(=O)c4cccc(Cl)c4)nc3C)cs2)cc1,-0.49%
16,COc1ccc([N+](=O)[O-])cc1NCC(=O)Nc1cc(S(=O)(=O)N2CCCCC2)ccc1C,14.2%
17,CC(=O)c1cccc(NC(=O)/C(=C\c2ccco2)NC(=O)c2ccco2)c1,-50.7%
18,COc1ccccc1CNC(=O)/C=C/c1ccc(S(=O)(=O)NCc2ccco2)cc1,10.7%
19,Cc1ccccc1-n1c(=O)cc(NCc2ccc3c(c2)OCO3)[nH]c1=O,-10.7%
